No constants are given. Whether binding was seen depends on the method and setting. Binding seen in cells or lysates may run through a third protein. Some results given as binding are weak or reduced against the parent protein; the word gives no strength. For some of these results: Sequences can lack the tags named with a protein. Values belong to the molecule of their own block, whether it stands above or below them.
Tests used:
[1] = molecular target: T1, V5-tagged G0S2 (G0/G1 switch gene 2), murine, full length (mouse) (UniProt Q61585); assay: co-IP; reciprocal: anti-V5 or anti-nucleolin immunoprecipitation from lysates of EL4 and murine BM cells transduced with MIGR1 or MIGR1-G0S2 (V5-tagged); 150 mM NaCl, 50 mM Tris pH 8, 1% Triton X-100; immunoblot
T1 sequence: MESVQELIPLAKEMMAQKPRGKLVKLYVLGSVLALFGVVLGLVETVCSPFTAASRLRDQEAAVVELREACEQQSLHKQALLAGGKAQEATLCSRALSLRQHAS

[2] = molecular target: T2, G0S2^1–26 (deletion of the C-terminal and HD domains) (mouse) (UniProt Q61585); assay: co-IP; endogenous nucleolin and ectopic V5-tagged G0S2 (wild type or deletion mutants) in lysates of transduced NIH3T3 cells; 150 mM NaCl, 50 mM Tris pH 8, 1% Triton X-100; immunoblot
T2 sequence: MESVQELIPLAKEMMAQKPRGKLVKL

[3] = molecular target: T1, V5-tagged G0S2 (G0/G1 switch gene 2), murine, full length (mouse); assay: as above
[4] = molecular target: T3, G0S2^43–103 (deletion of the N-terminal and HD domains) (mouse) (UniProt Q61585); assay: as above
T3 sequence: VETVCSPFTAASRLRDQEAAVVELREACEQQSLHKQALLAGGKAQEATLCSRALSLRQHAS

[5] = molecular target: T4, G0S2-ΔHD (deletion of the hydrophobic domain) (mouse) (UniProt Q61585); assay: as above
T4 sequence: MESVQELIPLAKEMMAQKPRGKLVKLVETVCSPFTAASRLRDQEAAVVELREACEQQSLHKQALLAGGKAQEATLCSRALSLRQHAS

[6] = molecular target: FLAG-tagged nucleolin Ncl^287–707 (C-terminal domain, containing both the RBD and RGG-rich domains) (mouse) (UniProt P09405); assay: co-IP; NIH3T3 cells co-transfected with V5-tagged G0S2 and FLAG-tagged nucleolin constructs, lysed after 48 h; 150 mM NaCl, 50 mM Tris pH 8, 1% Triton X-100; immunoblot
[7] = molecular target: FLAG-tagged nucleolin, wild type, murine, full length (mouse) (UniProt P09405); assay: as above
[8] = molecular target: FLAG-tagged nucleolin Ncl-ΔRBDs (deletion of all of the RBD domains) (mouse) (UniProt P09405); assay: as above
[9] = molecular target: T5, FLAG-tagged nucleolin Ncl^1–286 (N-terminal domain, including the nuclear localization signal) (mouse) (UniProt P09405); assay: as above
T5 sequence: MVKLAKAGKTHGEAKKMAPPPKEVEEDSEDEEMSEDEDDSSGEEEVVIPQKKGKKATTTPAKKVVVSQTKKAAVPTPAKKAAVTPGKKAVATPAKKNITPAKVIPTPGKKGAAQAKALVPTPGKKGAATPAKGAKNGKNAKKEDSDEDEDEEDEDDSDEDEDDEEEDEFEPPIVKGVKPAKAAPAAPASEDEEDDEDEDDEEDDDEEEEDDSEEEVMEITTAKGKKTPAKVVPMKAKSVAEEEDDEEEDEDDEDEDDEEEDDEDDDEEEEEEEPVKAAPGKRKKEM

[10] = molecular target: nucleolin, endogenous (mouse cells) (mouse (endogenous in EL4, murine BM cells, NIH3T3)) (UniProt P09405); assay: co-IP; reciprocal: anti-V5 or anti-nucleolin immunoprecipitation from lysates of EL4 and murine BM cells transduced with MIGR1 or MIGR1-G0S2 (V5-tagged); 150 mM NaCl, 50 mM Tris pH 8, 1% Triton X-100; immunoblot

binding [1]: binds | binding [2]: no binding | binding [3]: binds | binding [4]: no binding | binding [5]: no binding
Molecule: nucleolin, endogenous (mouse cells) (from UniProt P09405 1-707)

binding [6]: binds | binding [7]: binds | binding [8]: binds | binding [9]: no binding | binding [10]: binds
B1: V5-tagged G0S2 (G0/G1 switch gene 2), murine, full length (protein, UniProt Q61585 1-103)
chain: T1 sequence
